Data reported in the RNAGym collection of RNA variant scans (doi:10.1073/pnas.2313332121).
This sample is rich in variants without activity.

B1: TPR 5TU (parent)
chain: GGAUCUUCUCGAUCUAACAAAAAAGACAAAUCUGCCACAAAGCUUGAGAGCAUCUUCGGAUGCAGAGGCGGCAGCCUUCGGUGGCGCGAUAGCGCCAACGUUCUCAACUAUGACACGCAAAACGCGUGCUCCGUUGAAUGGAGUUUAUCAUG

Variants of: B1
Assay: polymerase ribozyme fitness, log enrichment relative to wild type (log ratio); higher = more active; in vitro selection for triplet polymerase activity
In short: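 Frozen incubation at −7 °C formed the core of a single, triplicate in vitro selection round applied to PCR-built, transcribed mutant libraries of each subunit of a heterodimeric triplet polymerase ribozyme. Extended constructs were gel-excised, captured with streptavidin beads and amplified by RT-PCR, and input and output libraries were Illumina-sequenced with a filter of ≥10 input reads and ≥1 read per output. Fitness is the logarithm of genotype enrichment relative to wild-type enrichment, with inverse-variance-weighted replicate averaging, and the logarithm is base 2.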

Row | Variant | polymerase ribozyme fitness (log ratio)
1 | C35U G74C C99U | -4.12
2 | C35U A40C U45G G50A G88U A91G G140C | ≤ -4.2
3 | C35U A40U U55A C99A U101G G152A | ≤ -4.2
4 | C35A U109G C118U U146A | ≤ -4.2
5 | C36A U53A U55A C87U | ≤ -4.2
6 | C35U C87A C93U G136U G140A | ≤ -4.2
7 | C35G A52C A60C | ≤ -4.2
8 | C36U A60C C63U C103G | ≤ -4.2
9 | C35U U77A C149A | ≤ -4.2
10 | C35U A49C G141A | ≤ -4.2
11 | C35U C57U C95G C99G A120U | -3.85
12 | C36A A40G C118U C129U A150G | ≤ -4.2
13 | C35G A91G U151G | ≤ -4.2
14 | C36A C93U G100U | ≤ -4.2
15 | C35U A49G A66C U82G G83A C103A A115G C132U | ≤ -4.2
16 | C35U G71C G81A A89C C95A | ≤ -4.2
17 | C36A C43U A60C C108U | ≤ -4.2
18 | C35U C76G A89U A97G | ≤ -4.2
19 | C36U A52G U61A C95A A122U U144A | ≤ -4.2
20 | C35G G58A G59U A60U A73C C116G C123A G140C | ≤ -4.2
21 | C35G U55A C72A C85U G133C U144C | ≤ -4.2

Row | Variant | polymerase ribozyme fitness (log ratio)
22 | C35G C85U A113G C114U A115U C123U | ≤ -4.2
23 | C36U A41C G42C G88U C96G | ≤ -4.2
24 | C35U U82A C93A U101G | ≤ -4.2
25 | C35G G48A A49C A89C C105U A107U | ≤ -4.2
26 | C36U A52G G70U G84A | -2.84
27 | C35U G68A C76G U148C | ≤ -4.2
28 | C35G G50A U61G G124C | ≤ -4.2
29 | C36U A40G C108G G140A | ≤ -4.2
30 | C35G U61C C96U | ≤ -4.2
31 | C36A C75A C87G A106U C149G | ≤ -4.2
32 | C36A A121U | -3.23
33 | C36A C95U C125G U127C | ≤ -4.2
34 | C36U A91U C125U | ≤ -4.2
35 | C35U U55A U56A G92A A110U U135A G152C | ≤ -4.2
36 | C35U C93G G141A | -3.56
37 | C35G A47C C76U G80A C87A U111G C114G G140A | ≤ -4.2
38 | C35U C129U | -0.479
39 | C35G A49G A64C G65C C93A | ≤ -4.2
40 | C36A C54G U61G C79A G80A U102C | ≤ -4.2
41 | C35G A60C | -3.99
42 | C35U G58A A60U G65A G68C U82G G88C A97U | ≤ -4.2

Row | Variant | polymerase ribozyme fitness (log ratio)
43 | C36G C105G A119U A147G | ≤ -4.2
44 | C36G C93U U146A | ≤ -4.2
45 | C36G G48C U102A U146G | ≤ -4.2
46 | C35G C76U | -3.99
47 | C35G C76A | -4.13
48 | C35A U44A G46U G58A A89U G92A G100A C116U A122G | ≤ -4.2
49 | C36A C95U | -3.7
50 | C35U A60G C79U G86C C93G G94A U104C | ≤ -4.2
51 | C35U G59U U102G U139A U144G C149G | ≤ -4.2
52 | C35U G92A A122G | -3.92
53 | C35U U45A G58A G124U | ≤ -4.2
54 | C35U A47U U148A A150U | ≤ -4.2
55 | C36A U45A U61A C87U A97C G126A | ≤ -4.2
56 | C35U G48A C54U G81A G141A | ≤ -4.2
57 | C36A G48A C93U A113U C118G U144G A150U | ≤ -4.2
58 | C36U A52G C69U C85U U109G C118A | -3.73
59 | C36U A138C | ≤ -4.2
60 | C35G A47C G70A C87G A115U G143U A150C | ≤ -4.2
61 | C35G U53A A97U C108A | ≤ -4.2
62 | C36U A39C G94C A115G | ≤ -4.2
63 | C35U U45A G83C C85G A97G G141C | ≤ -4.2

Row | Variant | polymerase ribozyme fitness (log ratio)
64 | C35U C38U C76G C85G U101G A138C A147G U151G | ≤ -4.2
65 | C36U A60G C87A G88C G141C | ≤ -4.2
66 | C36A C93A C105G C125A | ≤ -4.2
67 | C35U C96U U101C C118U | -0.95
68 | C35U A40U C57U A60G G126U G141C U145C | ≤ -4.2
69 | C35U C149U | -1.57
70 | C35U U61A G86A C125G G141U | ≤ -4.2
71 | C35G G83C C103A | ≤ -4.2
72 | C35G C96U | -4.18
73 | C35U G86U C95G | -3.9
74 | C35U G65C C87G C131A | ≤ -4.2
75 | C35U C118U | -0.573
76 | C36A U61A U145A U148C | ≤ -4.2
77 | C36A C57U A66C C99A | ≤ -4.2
78 | C35U C87U A107G G126A G136U G140U | ≤ -4.2
79 | C35U G42U C57A A150G | ≤ -4.2
80 | C36A A37U U55G U78C G83C C116A C123G A138U U148G | ≤ -4.2
81 | C36U A37U U56A A91C C116G | ≤ -4.2
82 | C35U G59A G83U A98C G128C | -3.94
83 | C36A C96G U104A C105A | ≤ -4.2
84 | C35U G50A C87U U135G C149U | ≤ -4.2
